40 sequences from PMC12820563, “FoxP3 forms a head-to-head dimer in vivo and stabilizes its multimerization on adjacent microsatellites” can be followed below.

This is one part of the list.

This experiment concerns the target T1, MBP-FoxP1dN (Mus musculus, UniProt P58462 326-579).
T1 sequence: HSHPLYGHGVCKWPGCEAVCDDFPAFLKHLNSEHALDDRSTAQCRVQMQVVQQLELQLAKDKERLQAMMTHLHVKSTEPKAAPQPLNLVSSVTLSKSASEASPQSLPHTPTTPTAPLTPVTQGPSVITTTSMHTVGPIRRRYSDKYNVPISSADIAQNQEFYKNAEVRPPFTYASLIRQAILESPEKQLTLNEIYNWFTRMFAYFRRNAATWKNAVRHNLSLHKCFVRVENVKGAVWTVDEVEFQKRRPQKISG
The experiment can be described thus: PD-seq (MBP pull-down with sequencing); 20 mM Tris-HCl pH 7.5, 100 mM NaCl, 1.5 mM MgCl2, 0.4 uM protein, 0.1 uM dsDNA library, 30 min, room temperature, amylose pull-down; high values mean tight binding. The note with it: protein: recombinant; tags: His6-MBP; chain copies: 2; dsDNA, one strand shown. In a few lines:
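Mouse FoxP3 or FoxP1 fragment lacking the N-terminus, His6-MBP-tagged and expressed in E. coli, was incubated at 0.4 µM with 0.1 µM Klenow-filled degenerate double-stranded DNA library for 30 min at room temperature in Tris pH 7.5 buffer with NaCl and MgCl2. Complexes captured on amylose resin were washed three times and their DNA sequenced on Illumina. Binding is reads-per-million enrichment of pull-down over input, replicates pooled.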
As to “GATGATTGTTCTCCCAGCTGATGAATTCTGCAATTCGAGTAAACAAATTTTCCTAATCTTTCTGTTCAAGCGCCATCTAC”, the binding signal was 0.958 RPM ratio (pull-down/input).

As to “GATGATTGTTCTCCCAGCTGATGAATTCCCAATATCGAGTAAACAAATTTTCCTAATCTTTCTGTTCAAGCGCCATCTAC”, the binding signal was 1.11 RPM ratio (pull-down/input).

On to “GATGATTGTTCTCCCAGCTGATGAATTCTCATAGTCGAGTAAACAAATTTTCCTAATCTTTCTGTTCAAGCGCCATCTAC”, for which the binding signal is 0.836 RPM ratio (pull-down/input).

As for “GATGATTGTTCTCCCAGCTGATGAATTGCCCGCGTCGAGTAAACAAATTTTCCTAATCTTTCTGTTCAAGCGCCATCTAC”, the binding signal is 0.975 RPM ratio (pull-down/input).

Regarding “GATGATTGTTCTCCCAGCTGATGAATTAATCGATTCGAGTAAACAAATTTTCCTAATCTTTCTGTTCAAGCGCCATCTAC”, the binding signal is 0.998 RPM ratio (pull-down/input).

As for “GATGATTGTTCTCCCAGCTGATGAATTGCTCACTTCGAGTAAACAAATTTTCCTAATCTTTCTGTTCAAGCGCCATCTAC”, the binding signal was 1.02 RPM ratio (pull-down/input).

For the sequence “GATGATTGTTCTCCCAGCTGATGAATTCTCGCCGTCGAGTAAACAAATTTTCCTAATCTTTCTGTTCAAGCGCCATCTAC”, the binding signal was 0.856 RPM ratio (pull-down/input).

Consider “GATGATTGTTCTCCCAGCTGATGAATTTGCTCGTTCGAGTAAACAAATTTTCCTAATCTTTCTGTTCAAGCGCCATCTAC”, for which the binding signal is 0.936 RPM ratio (pull-down/input).

For “GATGATTGTTCTCCCAGCTGATGAATTGTATGGTTCGAGTAAACAAATTTTCCTAATCTTTCTGTTCAAGCGCCATCTAC”, the binding signal is 1.1 RPM ratio (pull-down/input).

In the case of “GATGATTGTTCTCCCAGCTGATGAATTCAGTAGGTCGAGTAAACAAATTTTCCTAATCTTTCTGTTCAAGCGCCATCTAC”, the binding signal was 0.829 RPM ratio (pull-down/input).

As to “GATGATTGTTCTCCCAGCTGATGAATTCTGGGCATCGAGTAAACAAATTTTCCTAATCTTTCTGTTCAAGCGCCATCTAC”, the binding signal is 0.86 RPM ratio (pull-down/input).

Consider “GATGATTGTTCTCCCAGCTGATGAATTTTCAACATCGAGTAAACAAATTTTCCTAATCTTTCTGTTCAAGCGCCATCTAC”, for which the binding signal is 1.14 RPM ratio (pull-down/input).

With “GATGATTGTTCTCCCAGCTGATGAATTCACCCACTCGAGTAAACAAATTTTCCTAATCTTTCTGTTCAAGCGCCATCTAC”, the binding signal is 0.938 RPM ratio (pull-down/input).

Turning to “GATGATTGTTCTCCCAGCTGATGAATTATTGGTTTCGAGTAAACAAATTTTCCTAATCTTTCTGTTCAAGCGCCATCTAC”, the binding signal is 1.39 RPM ratio (pull-down/input).

On to “GATGATTGTTCTCCCAGCTGATGAATTATCTCCTTCGAGTAAACAAATTTTCCTAATCTTTCTGTTCAAGCGCCATCTAC”, for which the binding signal was 0.922 RPM ratio (pull-down/input).

As for “GATGATTGTTCTCCCAGCTGATGAATTATAACGATCGAGTAAACAAATTTTCCTAATCTTTCTGTTCAAGCGCCATCTAC”, the binding signal was 1.01 RPM ratio (pull-down/input).

As to “GATGATTGTTCTCCCAGCTGATGAATTCCTACTTTCGAGTAAACAAATTTTCCTAATCTTTCTGTTCAAGCGCCATCTAC”, the binding signal is 0.928 RPM ratio (pull-down/input).

As to “GATGATTGTTCTCCCAGCTGATGAATTTAAGTCGTCGAGTAAACAAATTTTCCTAATCTTTCTGTTCAAGCGCCATCTAC”, the binding signal was 0.863 RPM ratio (pull-down/input).

As for “GATGATTGTTCTCCCAGCTGATGAATTTGGGATCTCGAGTAAACAAATTTTCCTAATCTTTCTGTTCAAGCGCCATCTAC”, the binding signal was 0.788 RPM ratio (pull-down/input).

Consider “GATGATTGTTCTCCCAGCTGATGAATTACGTGACTCGAGTAAACAAATTTTCCTAATCTTTCTGTTCAAGCGCCATCTAC”, for which the binding signal is 1.01 RPM ratio (pull-down/input).

Regarding “GATGATTGTTCTCCCAGCTGATGAATTGCCCATCTCGAGTAAACAAATTTTCCTAATCTTTCTGTTCAAGCGCCATCTAC”, the binding signal is 0.881 RPM ratio (pull-down/input).

Turning to “GATGATTGTTCTCCCAGCTGATGAATTGGGGCAGTCGAGTAAACAAATTTTCCTAATCTTTCTGTTCAAGCGCCATCTAC”, the binding signal is 0.806 RPM ratio (pull-down/input).

“GATGATTGTTCTCCCAGCTGATGAATTAATGTGTTCGAGTAAACAAATTTTCCTAATCTTTCTGTTCAAGCGCCATCTAC”: the binding signal was 1.45 RPM ratio (pull-down/input).

Regarding “GATGATTGTTCTCCCAGCTGATGAATTACGACCGTCGAGTAAACAAATTTTCCTAATCTTTCTGTTCAAGCGCCATCTAC”, the binding signal was 0.887 RPM ratio (pull-down/input).

“GATGATTGTTCTCCCAGCTGATGAATTGTGGTTGTCGAGTAAACAAATTTTCCTAATCTTTCTGTTCAAGCGCCATCTAC”: the binding signal is 1.4 RPM ratio (pull-down/input).

On to “GATGATTGTTCTCCCAGCTGATGAATTAGTGGAATCGAGTAAACAAATTTTCCTAATCTTTCTGTTCAAGCGCCATCTAC”, for which the binding signal is 0.962 RPM ratio (pull-down/input).

As for “GATGATTGTTCTCCCAGCTGATGAATTAAAGGTTTCGAGTAAACAAATTTTCCTAATCTTTCTGTTCAAGCGCCATCTAC”, the binding signal was 0.867 RPM ratio (pull-down/input).

For “GATGATTGTTCTCCCAGCTGATGAATTAAACTTTTCGAGTAAACAAATTTTCCTAATCTTTCTGTTCAAGCGCCATCTAC”, the binding signal was 1.02 RPM ratio (pull-down/input).

For the sequence “GATGATTGTTCTCCCAGCTGATGAATTCACATAATCGAGTAAACAAATTTTCCTAATCTTTCTGTTCAAGCGCCATCTAC”, the binding signal was 1.18 RPM ratio (pull-down/input).

Regarding “GATGATTGTTCTCCCAGCTGATGAATTCTTCTCATCGAGTAAACAAATTTTCCTAATCTTTCTGTTCAAGCGCCATCTAC”, the binding signal is 0.939 RPM ratio (pull-down/input).

In the case of “GATGATTGTTCTCCCAGCTGATGAATTGCGGAGGTCGAGTAAACAAATTTTCCTAATCTTTCTGTTCAAGCGCCATCTAC”, the binding signal was 0.93 RPM ratio (pull-down/input).

For the sequence “GATGATTGTTCTCCCAGCTGATGAATTAGGTTTCTCGAGTAAACAAATTTTCCTAATCTTTCTGTTCAAGCGCCATCTAC”, the binding signal was 0.833 RPM ratio (pull-down/input).

As for “GATGATTGTTCTCCCAGCTGATGAATTGTTGGATTCGAGTAAACAAATTTTCCTAATCTTTCTGTTCAAGCGCCATCTAC”, the binding signal is 1.15 RPM ratio (pull-down/input).

Consider “GATGATTGTTCTCCCAGCTGATGAATTCCGAACGTCGAGTAAACAAATTTTCCTAATCTTTCTGTTCAAGCGCCATCTAC”, for which the binding signal was 0.791 RPM ratio (pull-down/input).

In the case of “GATGATTGTTCTCCCAGCTGATGAATTACTCGCATCGAGTAAACAAATTTTCCTAATCTTTCTGTTCAAGCGCCATCTAC”, the binding signal was 1.18 RPM ratio (pull-down/input).

With “GATGATTGTTCTCCCAGCTGATGAATTATGTTCATCGAGTAAACAAATTTTCCTAATCTTTCTGTTCAAGCGCCATCTAC”, the binding signal was 1.04 RPM ratio (pull-down/input).

Turning to “GATGATTGTTCTCCCAGCTGATGAATTTATTGTATCGAGTAAACAAATTTTCCTAATCTTTCTGTTCAAGCGCCATCTAC”, the binding signal was 1.6 RPM ratio (pull-down/input).

On to “GATGATTGTTCTCCCAGCTGATGAATTGTGCTGTTCGAGTAAACAAATTTTCCTAATCTTTCTGTTCAAGCGCCATCTAC”, for which the binding signal is 1.3 RPM ratio (pull-down/input).

“GATGATTGTTCTCCCAGCTGATGAATTGGTGGCGTCGAGTAAACAAATTTTCCTAATCTTTCTGTTCAAGCGCCATCTAC”: the binding signal is 0.963 RPM ratio (pull-down/input).

With “GATGATTGTTCTCCCAGCTGATGAATTAGCGCTTTCGAGTAAACAAATTTTCCTAATCTTTCTGTTCAAGCGCCATCTAC”, the binding signal is 0.991 RPM ratio (pull-down/input).
